Screen size: about 280,000 compounds; about 1,100 (0.39%) were called active. The inconclusive results got no clear call from the source; some entries with a clear call stand among them for comparison. Calls come from the whole dose curve; as a rule, active = well fitted inhibition curve with a large enough effect; inconclusive = small, poorly fitted or top-dose-only effect, or effect the other way; inactive = flat fitted curve, though single readings scatter. Potencies of inconclusive entries are left out as doubtful fits.
molecular target: Microtubule-associated protein tau (Homo sapiens) (UniProt P10636); assay: qHTS for Inhibitors of Tau Fibril Formation, Fluorescence Polarization; details: K18 P301L tau heparin fibrillization, Alexa594 FP, 6 h; series mostly up to 57.7 µM; activity, negative = inhibition: at the top concentration; note: nearly all actives have a fitted effect of over 55% in size
Outline: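 Compound effects on tau fibrillization are measured by Alexa 594 fluorescence polarization (ex 555, em 632 nm). K18 P301L tau is used at 15 uM with 0.24 uM labeled tracer, and 20 uM heparin induces aggregation over 6 hr at 37 C.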
% is set by controls: 0 for no effect and ±100 for the full control effect; potency is the fitted concentration of half-maximal effect; tags give direction and shape of the fitted curve.

Chain of UniProt P10636 (P10636 whole entry, looked up): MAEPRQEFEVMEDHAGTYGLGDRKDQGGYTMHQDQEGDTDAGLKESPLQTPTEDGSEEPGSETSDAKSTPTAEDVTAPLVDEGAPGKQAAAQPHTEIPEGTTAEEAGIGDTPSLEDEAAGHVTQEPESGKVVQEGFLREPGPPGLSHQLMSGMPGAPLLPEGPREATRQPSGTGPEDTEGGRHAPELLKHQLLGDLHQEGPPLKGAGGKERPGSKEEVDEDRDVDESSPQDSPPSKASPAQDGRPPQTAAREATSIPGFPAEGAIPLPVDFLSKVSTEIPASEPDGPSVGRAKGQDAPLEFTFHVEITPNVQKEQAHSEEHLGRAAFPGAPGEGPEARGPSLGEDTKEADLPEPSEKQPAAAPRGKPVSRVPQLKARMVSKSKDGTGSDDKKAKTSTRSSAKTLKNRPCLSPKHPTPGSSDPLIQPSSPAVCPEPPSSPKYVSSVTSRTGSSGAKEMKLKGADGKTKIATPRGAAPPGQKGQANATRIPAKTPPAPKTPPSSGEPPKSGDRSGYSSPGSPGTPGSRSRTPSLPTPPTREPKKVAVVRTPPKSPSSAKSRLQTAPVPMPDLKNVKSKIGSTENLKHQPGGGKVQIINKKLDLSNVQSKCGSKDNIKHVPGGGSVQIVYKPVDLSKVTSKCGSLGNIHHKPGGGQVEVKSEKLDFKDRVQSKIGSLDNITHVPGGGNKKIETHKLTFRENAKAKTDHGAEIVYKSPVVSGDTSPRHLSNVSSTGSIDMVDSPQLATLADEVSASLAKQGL

Structure (SMILES) | activity, negative = inhibition | Potency
CC(C)c1ccc(NC(=O)c2cccn2-c2nnc(N3CCCCC3)s2)cc1 | inactive: 4.6% | –
COc1ccc(-c2noc(N3CCC(C(=O)Nc4ccc(C)c(F)c4)CC3)n2)cc1OC | inactive: -15.8% | –
O=C1Nc2ccc(F)cc2C12Nc1ccccc1-c1nnc(SCc3ccccc3F)nc1O2 (stereo not given) | – | inconclusive [inhibitor, single point]
Cc1ccc(Cl)cc1N1C(=O)N(Cc2ccc(C#N)cc2)c2ccccc2S1(=O)=O | – | inconclusive [inhibitor, single point]
COc1ccc(Cl)cc1NC(=O)CCCn1c(C)c2cnn(-c3ccccc3)c(=O)c2c1C | inactive: 1.43% | –
Cc1cccc(NC(=S)N(CCCN2CCOCC2)C(C)c2cc3ccccc3o2)c1 (stereo not given) | – | inconclusive [activator, single point]
Cc1ccc(NC(=O)CC2Nc3cccc4cccc(c34)NC2=O)cc1 (stereo not given) | – | inconclusive [inhibitor, single point]
CCOc1cccc2cc(-c3nc4sc5c(c4c(=O)[nH]3)CCC(C)C5)c(=O)oc12 (stereo not given) | inactive: 0.0246% | –
COc1ccc(OCC(=O)NC(=S)Nc2ccc3c4c(cccc24)CC3)cc1 | – | inconclusive [inhibitor, single point]
COc1cccc(Cn2c(=O)n(-c3ccc(Br)cc3F)c(=O)c3sc4ccccc4c32)c1 | – | inconclusive [inhibitor, partial curve, poor fit]
CC(C)(C(N)=O)c1ccccc1 | – | inconclusive [inhibitor, partial curve]
COc1cccc(/C=N/N2C(=O)CSC2=S)c1O | – | inconclusive [inhibitor, single point]
CCc1ccc(S(=O)(=O)c2nnn3c2nc(NC2CCCC2)c2sccc23)cc1 | – | inconclusive [inhibitor, partial curve]
COc1cc(OC)c(NC(=O)Nc2ccccc2OCc2cc(=O)n3cc(C)ccc3n2)cc1Cl | – | inconclusive [activator, partial curve]
Cc1cccc(C2NC(=O)c3c(sc(C)c3C)N2)c1O (stereo not given) | inactive: -10.4% | –
COc1ccc2nc(SCC(=O)Nc3ccc(S(=O)(=O)N4CCCC4)cc3)c(C#N)cc2c1 | – | inconclusive [inhibitor, partial curve]
CC(C)C(=O)N1c2ccccc2NC2=C(C(=O)CCC2)C1c1ccc(N(C)C)cc1 (stereo not given) | – | inconclusive [inhibitor, full curve, poor fit]
CN1C(=O)/C(=C2\SC(N)=NC2=O)c2ccccc21 | inactive: 2.81% | –
O=C(CSc1ncnc2nc[nH]c12)c1ccc2ccccc2c1 | – | inconclusive [inhibitor, full curve]
O=C(CCN1CCc2ccccc2C(c2ccccc2)C1)c1ccc2c(c1)OCCO2 (stereo not given) | – | inconclusive [activator, partial curve]
O=C(Nc1cccc(Cl)c1)Nc1nc(-c2ccccc2)cs1 | – | inconclusive [inhibitor, partial curve]
COc1ccc2ccccc2c1C1CC(=O)N2CN(C)CSC2=C1C#N (stereo not given) | – | active: 22.4 µM
COc1ccc(-c2cc(C(=O)Nc3ccccc3)on2)cc1 | inactive: 0.388% | –

Structure (SMILES) | activity, negative = inhibition | Potency
C=CCN(CC=C)C(=O)C1CCC(C(=O)N(CC=C)CC=C)CC1 (stereo not given) | inactive: -0.345% | –
Oc1cccc(C(=S)N2CCCCC2)c1 | – | inconclusive [inhibitor, single point]
O=C(NCCc1ccccc1)c1c[nH]c2ccc(S(=O)(=O)Nc3ccccc3F)cc2c1=O | – | active: 12.6 µM
O=c1cc(O)c2sc(Nc3ccc(F)cc3)nc2[nH]1 | – | inconclusive [inhibitor, single point]
N#CCCN1CCCc2cc(N=Nc3ccc(C(F)(F)F)cc3)ccc21 | – | inconclusive [activator, full curve, poor fit]
COc1ccc(C(=O)/C=C/Nc2ccc([N+](=O)[O-])cc2C)cc1OC | – | inconclusive [inhibitor, partial curve]
CC1CCN(C(=O)c2cc(-c3ccc(Cl)cc3)on2)CC1 | inactive: -5.69% | –
Cn1ccnc1C(O)c1ccc(OCc2ccccc2)cc1 (stereo not given) | – | inconclusive [activator, single point]
CC(C)NC(=O)COC(=O)c1cc(F)c(F)cc1Cl | – | inconclusive [inhibitor, single point]
Cc1cc(C)nc(SCc2ccc(C(=O)N/N=C/c3ccco3)cc2)n1 | inactive: -0.974% | –
CCn1nc(C(=O)OCC(=O)N2CC(=O)Nc3ccccc32)c2ccccc2c1=O | inactive: 4.18% | –
O=C(Nc1ccc(O)c(-c2nc3ccccc3o2)c1)c1ccco1 | – | inconclusive [inhibitor, partial curve]
CN1CCc2cccc3c2C1Cc1ccc(O)c(O)c1-3 (stereo not given) | – | active: 31.6 µM
O=C(NC(Nc1cc(C(F)(F)F)ccc1Cl)C(=O)c1ccccc1)c1ccccc1 (stereo not given) | – | inconclusive [inhibitor, single point]
Cc1cccc(NC(=O)CSc2nc3c([nH]c4ccccc43)c(=O)n2C)c1 | – | inconclusive [inhibitor, single point]
CC(=O)Nc1sc(N/N=C\c2ccco2)nc1-c1cccs1 | – | inconclusive [inhibitor, single point]
COc1ccc(NC(=O)c2cn(-c3ccccc3)nc2SC)cc1 | – | inconclusive [inhibitor, partial curve]
O=c1[nH]c(-c2ccccn2)nc2sc(-c3ccccc3)cc12 | – | inconclusive [inhibitor, single point]
CCOc1cccc(C(=O)NC(=S)Nc2ccc(N3CCN(CC)CC3)cc2)c1 | inactive: 8.95% | –
O=C(NCCn1cc(SCc2ccc(F)cc2)c2ccccc21)c1ccccc1F | inactive: -1.72% | –
Cc1cccc(Oc2c([N+](=O)[O-])c(=O)n(C)c3ccccc23)c1 | – | inconclusive [inhibitor, partial curve, poor fit]
COc1ccc(S(=O)(=O)Nc2cc(-c3cn4ccccc4n3)ccc2C)cc1 | – | inconclusive [inhibitor, partial curve]

— PubChem BioAssay AID1468 (National Center for Advancing Translational Sciences (NCATS), 2008)
